T1: cynomolgus 4-1BB (cynomolgus, UniProt A9YYE7 24-186)
T1 sequence: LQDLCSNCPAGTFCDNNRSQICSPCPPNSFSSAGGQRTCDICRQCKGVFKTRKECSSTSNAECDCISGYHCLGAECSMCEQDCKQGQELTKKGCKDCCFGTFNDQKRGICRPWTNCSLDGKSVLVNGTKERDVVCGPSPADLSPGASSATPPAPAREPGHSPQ

B1: hu106MSLN-2 (bispecific antibody)
chain: NVMLTQPHSVSESPGKTVTISCKLNSGNIGSYYVHWYQQRPGSSPTTMIYRDDKRPDGVPDRFSGSIDSSSNSASLTISGLKTEDEADYYCHSYDSTITPVFGGGTKLTVLGQGGGGSGGGGSGGGGSGGGGSGGGGSGGGGSEVQLVQSGAEVKKPGSSVKVSCKASGYTFTSYYIYWVRQAPGQGLEWIGNIWPGNGGTFYGEKFMGRATFTADTSTSTAYMELSSLRSEDTAVYYCARRPDYSGDDYFDYWGQGTLVTVSS[human IgG1 Fc with C220S V273E (EU numbers) not written out]GGGGSGGGSGGGSGGGGSSYELTQPPSVSVSPGQTASITCSGDKLGDKYASWYQQKPGQSPVLVIYQDNRRPSGIPERFSGSNSGNTATLTISGTQAMDEADYYCQAWDSDTYVFGTGTKVTVLGQGGGGSGGGGSGGGGSGGGGSGGGGSGGGGSEVQLVQSGAEVKKPGASVKVSCKASGDTFKRYYVHWVRQAPGQGLEWMGIINPSGVSTTYAQKFQGRVTMTRDTSTSTVYMELSSLRSEDTAVYYCAEVRGSGFNYFGMDVWGQGTLVTVSS
B2: hu107MSLN-3 (bispecific antibody)
chain: SYELTQPPSVSVSPGQTASITCSGDKLGDKYASWYQQKPGQSPVLVIYQDNRRPSGIPERFSGSNSGNTATLTISGTQAMDEADYYCQAWDSDTYVFGTGTKVTVLGQGGGGSGGGGSGGGGSGGGGSGGGGSGGGGSEVQLVQSGAEVKKPGASVKVSCKASGDTFKRYYVHWVRQAPGQGLEWMGIINPSGVSTTYAQKFQGRVTMTRDTSTSTVYMELSSLRSEDTAVYYCAEVRGSGFNYFGMDVWGQGTLVTVSS[human IgG1 Fc with C220S V273E (EU numbers) not written out]GGGGSGGGSGGGSGGGGSEVQLVQSGAEVKKPGSSVKVSCKASDYTFNDYWVSWVRQAPGQGLEWIGEIYPNSGATNFNGKFRGRATLTVDNSASTAYMELSSLRSEDTAVYYCTREYTRDWFAYWGQGTLVTVSSGGGGSGGGGSGGGGSGGGGSGGGGSGGGGSDVVLTQSPLSLPVTLGQPASISCRSSQSLLDSDGNTYLYWFQQRPGQSPRRLIYLVSNLGSGVPDRFSGSGSGTDFTLKISRVEAEDVGVYYCMQPTHAPYTFGQGTKLEIKR
B3: hu107MSLN-2 (bispecific antibody)
chain: DVVLTQSPLSLPVTLGQPASISCRSSQSLLDSDGNTYLYWFQQRPGQSPRRLIYLVSNLGSGVPDRFSGSGSGTDFTLKISRVEAEDVGVYYCMQPTHAPYTFGQGTKLEIKRGGGGSGGGGSGGGGSGGGGSGGGGSGGGGSEVQLVQSGAEVKKPGSSVKVSCKASDYTFNDYWVSWVRQAPGQGLEWIGEIYPNSGATNFNGKFRGRATLTVDNSASTAYMELSSLRSEDTAVYYCTREYTRDWFAYWGQGTLVTVSS[human IgG1 Fc with C220S V273E (EU numbers) not written out]GGGGSGGGSGGGSGGGGSSYELTQPPSVSVSPGQTASITCSGDKLGDKYASWYQQKPGQSPVLVIYQDNRRPSGIPERFSGSNSGNTATLTISGTQAMDEADYYCQAWDSDTYVFGTGTKVTVLGQGGGGSGGGGSGGGGSGGGGSGGGGSGGGGSEVQLVQSGAEVKKPGASVKVSCKASGDTFKRYYVHWVRQAPGQGLEWMGIINPSGVSTTYAQKFQGRVTMTRDTSTSTVYMELSSLRSEDTAVYYCAEVRGSGFNYFGMDVWGQGTLVTVSS
B4: hu106MSLN-3 (bispecific antibody)
chain: SYELTQPPSVSVSPGQTASITCSGDKLGDKYASWYQQKPGQSPVLVIYQDNRRPSGIPERFSGSNSGNTATLTISGTQAMDEADYYCQAWDSDTYVFGTGTKVTVLGQGGGGSGGGGSGGGGSGGGGSGGGGSGGGGSEVQLVQSGAEVKKPGASVKVSCKASGDTFKRYYVHWVRQAPGQGLEWMGIINPSGVSTTYAQKFQGRVTMTRDTSTSTVYMELSSLRSEDTAVYYCAEVRGSGFNYFGMDVWGQGTLVTVSS[human IgG1 Fc with C220S V273E (EU numbers) not written out]GGGGSGGGSGGGSGGGGSEVQLVQSGAEVKKPGSSVKVSCKASGYTFTSYYIYWVRQAPGQGLEWIGNIWPGNGGTFYGEKFMGRATFTADTSTSTAYMELSSLRSEDTAVYYCARRPDYSGDDYFDYWGQGTLVTVSSGGGGSGGGGSGGGGSGGGGSGGGGSGGGGSNVMLTQPHSVSESPGKTVTISCKLNSGNIGSYYVHWYQQRPGSSPTTMIYRDDKRPDGVPDRFSGSIDSSSNSASLTISGLKTEDEADYYCHSYDSTITPVFGGGTKLTVLGQ
B5: hu107MSLN-1 (bispecific antibody)
chain: EVQLVQSGAEVKKPGSSVKVSCKASDYTFNDYWVSWVRQAPGQGLEWIGEIYPNSGATNFNGKFRGRATLTVDNSASTAYMELSSLRSEDTAVYYCTREYTRDWFAYWGQGTLVTVSSGGGGSGGGGSGGGGSGGGGSGGGGSGGGGSDVVLTQSPLSLPVTLGQPASISCRSSQSLLDSDGNTYLYWFQQRPGQSPRRLIYLVSNLGSGVPDRFSGSGSGTDFTLKISRVEAEDVGVYYCMQPTHAPYTFGQGTKLEIKR[human IgG1 Fc with C220S V273E (EU numbers) not written out]GGGGSGGGSGGGSGGGGSSYELTQPPSVSVSPGQTASITCSGDKLGDKYASWYQQKPGQSPVLVIYQDNRRPSGIPERFSGSNSGNTATLTISGTQAMDEADYYCQAWDSDTYVFGTGTKVTVLGQGGGGSGGGGSGGGGSGGGGSGGGGSGGGGSEVQLVQSGAEVKKPGASVKVSCKASGDTFKRYYVHWVRQAPGQGLEWMGIINPSGVSTTYAQKFQGRVTMTRDTSTSTVYMELSSLRSEDTAVYYCAEVRGSGFNYFGMDVWGQGTLVTVSS
B6: hu106MSLN-4 (bispecific antibody)
chain: SYELTQPPSVSVSPGQTASITCSGDKLGDKYASWYQQKPGQSPVLVIYQDNRRPSGIPERFSGSNSGNTATLTISGTQAMDEADYYCQAWDSDTYVFGTGTKVTVLGQGGGGSGGGGSGGGGSGGGGSGGGGSGGGGSEVQLVQSGAEVKKPGASVKVSCKASGDTFKRYYVHWVRQAPGQGLEWMGIINPSGVSTTYAQKFQGRVTMTRDTSTSTVYMELSSLRSEDTAVYYCAEVRGSGFNYFGMDVWGQGTLVTVSS[human IgG1 Fc with C220S V273E (EU numbers) not written out]GGGGSGGGSGGGSGGGGSNVMLTQPHSVSESPGKTVTISCKLNSGNIGSYYVHWYQQRPGSSPTTMIYRDDKRPDGVPDRFSGSIDSSSNSASLTISGLKTEDEADYYCHSYDSTITPVFGGGTKLTVLGQGGGGSGGGGSGGGGSGGGGSGGGGSGGGGSEVQLVQSGAEVKKPGSSVKVSCKASGYTFTSYYIYWVRQAPGQGLEWIGNIWPGNGGTFYGEKFMGRATFTADTSTSTAYMELSSLRSEDTAVYYCARRPDYSGDDYFDYWGQGTLVTVSS
B7: hu107MSLN-4 (bispecific antibody)
chain: SYELTQPPSVSVSPGQTASITCSGDKLGDKYASWYQQKPGQSPVLVIYQDNRRPSGIPERFSGSNSGNTATLTISGTQAMDEADYYCQAWDSDTYVFGTGTKVTVLGQGGGGSGGGGSGGGGSGGGGSGGGGSGGGGSEVQLVQSGAEVKKPGASVKVSCKASGDTFKRYYVHWVRQAPGQGLEWMGIINPSGVSTTYAQKFQGRVTMTRDTSTSTVYMELSSLRSEDTAVYYCAEVRGSGFNYFGMDVWGQGTLVTVSS[human IgG1 Fc with C220S V273E (EU numbers) not written out]GGGGSGGGSGGGSGGGGSDVVLTQSPLSLPVTLGQPASISCRSSQSLLDSDGNTYLYWFQQRPGQSPRRLIYLVSNLGSGVPDRFSGSGSGTDFTLKISRVEAEDVGVYYCMQPTHAPYTFGQGTKLEIKRGGGGSGGGGSGGGGSGGGGSGGGGSGGGGSEVQLVQSGAEVKKPGSSVKVSCKASDYTFNDYWVSWVRQAPGQGLEWIGEIYPNSGATNFNGKFRGRATLTVDNSASTAYMELSSLRSEDTAVYYCTREYTRDWFAYWGQGTLVTVSS
B8: V6-5 (bispecific antibody)
chain: EVQLQESGPGLVKPSETLSLTCTVSGYSITSNYYWNWIRQPPGKGLEWMGYIRYDGSNNYNPSLKNRVTISRDTSKNQFSLKLSSVTAADTAVYYCARLDYWGQGTTVTVSSGGGGSGGGGSGGGGSGGGGSGGGGSGGGGSDAQMTQSPSSLSASVGDRVTITCRSSQSLENTNGNTFLNWFQQKPGKAPKLLIYRVSNRFSGVPSRFSGSGSGTDFTLTISSLQPEDFATYYCLQVTHVPFTFGQGTKLEIKR[human IgG1 Fc with C220S V273E (EU numbers) not written out]GGGGSGGGSGGGSGGGGSSYELTQPPSVSVAPGQTARISCSGDKLGDKYASWYQQKPGQAPVLVIYQDNRRPSGIPERFSGSNSGNTATLTISGTQAEDEADYYCQAWDSDTYVFGGGTKLTVLGQGGGGSGGGGSGGGGSGGGGSGGGGSGGGGSEVQLVQSGAEVKKPGASVKVSCKASGDTFKRYYVHWVRQAPGQGLEWMGIINPSGVSTTYAQKFQGRVTMTRDTSTSTVYMELSSLRSEDTAVYYCAEVRGSGFNYFGMDVWGQGTLVTVSS
B9: V6-2 (bispecific antibody)
chain: EVQLQESGPGLVKPSETLSLTCTVSGYSITSNYYWNWIRQPPGKGLEWMGYIRYDGSNNYNPSLKNRVTISRDTSKNQFSLKLSSVTAADTAVYYCARLDYWGQGTTVTVSSGGGGSGGGGSGGGGSGGGGSGGGGSGGGGSDAVMTQTPLSLSVTPGQPASISCRSSQSLENTNGNTFLNWYLQKPGQSPQLLIYRVSNRFSGVPDRFSGSGSGTDFTLKISRVEAEDVGVYYCLQVTHVPFTFGQGTKLEIKR[human IgG1 Fc with C220S V263L (EU numbers) not written out]GGGGSGGGSGGGSGGGGSSYELTQPPSVSVAPGQTARISCSGDKLGDKYASWYQQKPGQAPVLVIYQDNRRPSGIPERFSGSNSGNTATLTISGTQAEDEADYYCQAWDSDTYVFGGGTKLTVLGQGGGGSGGGGSGGGGSGGGGSGGGGSGGGGSEVQLVQSGAEVKKPGASVKVSCKASGDTFKRYYVHWVRQAPGQGLEWMGIINPSGVSTTYAQKFQGRVTMTRDTSTSTVYMELSSLRSEDTAVYYCAEVRGSGFNYFGMDVWGQGTLVTVSS

Each binder was assayed against T1, cynomolgus 4-1BB (assay: SPR).

| Kd [nM] | Binder |
| --- | --- |
| 660 | B1 |
| 4.5 | B2 |
| 1.4 | B3 |
| 4100 | B4 |
| 0.55 | B5 |
| 940 | B6 |
| 3.3 | B7 |

These binders were tested against human CD40 on cells (HEK293 stable transfectants, HEK-Blue CD40 cells, human B cells, monocytic cells, … (human, UniProt P25942 21-277)) (assay: cell-based or functional assay).
Sequence of UniProt P25942 (P25942 21-277 limits assumed): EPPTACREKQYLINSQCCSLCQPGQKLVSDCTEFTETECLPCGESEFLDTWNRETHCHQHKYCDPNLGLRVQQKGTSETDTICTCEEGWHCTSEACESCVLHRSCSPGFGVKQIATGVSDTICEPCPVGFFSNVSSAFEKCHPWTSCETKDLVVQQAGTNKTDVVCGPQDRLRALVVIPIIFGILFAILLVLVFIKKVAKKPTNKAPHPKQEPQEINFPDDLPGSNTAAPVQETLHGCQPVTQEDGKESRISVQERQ

| Max. IL-12p70, DC co-cultured with HEK293 expressing mesothelin [pg/mL] | Binder |
| --- | --- |
| 300 | B8 |
| 150 | B9 |
